Experimental data: paper PMC4336329 (PLoS ONE, 2015)
The campaign covered roughly 310,000 compounds. About 2,200 (0.71%) showed an effect of 50% or more. The effect is printed as a negative number. Some of the results follow.

molecular target: human ether-à-go-go-related gene (hERG) potassium channel (human, UniProt Q12809); test: primary screen, population patch clamp on CHO cells stably expressing hERG
Sequence (Q12809 whole entry, looked up): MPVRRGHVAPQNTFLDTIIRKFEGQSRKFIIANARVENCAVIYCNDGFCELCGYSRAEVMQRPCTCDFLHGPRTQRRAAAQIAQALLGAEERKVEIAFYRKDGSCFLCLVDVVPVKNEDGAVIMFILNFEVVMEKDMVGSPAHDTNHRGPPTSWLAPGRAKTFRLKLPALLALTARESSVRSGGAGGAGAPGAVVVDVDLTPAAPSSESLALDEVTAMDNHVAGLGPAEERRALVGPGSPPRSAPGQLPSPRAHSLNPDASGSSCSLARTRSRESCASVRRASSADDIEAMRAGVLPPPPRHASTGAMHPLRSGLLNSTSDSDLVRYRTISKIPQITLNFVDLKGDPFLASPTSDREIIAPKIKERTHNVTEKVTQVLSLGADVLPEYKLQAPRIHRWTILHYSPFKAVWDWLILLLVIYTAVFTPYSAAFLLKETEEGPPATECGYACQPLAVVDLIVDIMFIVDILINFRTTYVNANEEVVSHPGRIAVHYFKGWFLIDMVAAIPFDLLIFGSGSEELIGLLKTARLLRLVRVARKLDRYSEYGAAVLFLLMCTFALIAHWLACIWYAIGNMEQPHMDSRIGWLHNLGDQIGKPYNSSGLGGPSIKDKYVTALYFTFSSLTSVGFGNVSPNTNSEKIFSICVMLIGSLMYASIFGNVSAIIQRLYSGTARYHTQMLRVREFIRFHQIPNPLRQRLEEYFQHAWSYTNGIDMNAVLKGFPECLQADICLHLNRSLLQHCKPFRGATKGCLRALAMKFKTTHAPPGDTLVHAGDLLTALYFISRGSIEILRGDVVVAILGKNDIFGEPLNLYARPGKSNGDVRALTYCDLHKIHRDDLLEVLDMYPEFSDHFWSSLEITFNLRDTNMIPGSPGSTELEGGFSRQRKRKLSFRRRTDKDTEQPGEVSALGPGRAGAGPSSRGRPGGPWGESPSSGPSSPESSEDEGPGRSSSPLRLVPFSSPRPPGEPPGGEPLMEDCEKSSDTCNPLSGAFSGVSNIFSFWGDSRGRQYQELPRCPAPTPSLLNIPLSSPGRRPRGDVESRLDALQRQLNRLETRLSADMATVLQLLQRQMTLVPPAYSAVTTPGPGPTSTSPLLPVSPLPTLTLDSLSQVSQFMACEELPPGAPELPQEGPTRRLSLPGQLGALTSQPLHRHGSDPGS

| Structure (SMILES) | hERG current change (%, negative = inhibition) at 1uM |
| --- | --- |
| O=C(COC(=O)/C=C/c1ccc(S(=O)(=O)N2CCOCC2)cc1)NCc1ccc(F)cc1 | -2.79% |
| O=C1CC(SCCc2nc3ccccc3[nH]2)C(=O)N1c1ccc(F)cc1 (stereo not drawn) | 0.751% |
| CN(C(=O)COC(=O)CNC(=O)C12CC3CC(CC(C3)C1)C2)C1CCS(=O)(=O)C1 (stereo not drawn) | 12.1% |
| Cc1cc(=O)[nH]c(SCc2cn3ccccc3n2)n1 | 9.55% |
| CCOc1cc(NC(=O)C2CC2)c(OCC)cc1NC(=O)c1ccccc1OCC | -14.4% |
| COC(=O)c1ccc(NC(=O)COC(=O)C2CC(=O)N(Cc3ccccc3)C2)cc1 (stereo not drawn) | 3.54% |
| C=CCSc1nc2ccccc2[nH]1 | 23.3% |
| COc1ccc(OC)c(NC(=O)Cc2coc3ccc(C)cc23)c1 | -3.82% |
| CCOC(=O)C1CCN(C(=O)COc2ccc(S(=O)(=O)NC(C)C)cc2)CC1 | -2.14% |
| CCOc1ccc(CC(=O)NNC(=S)NC)cc1Br | 20.5% |
| CCN(C(=O)CSc1ccc2ccccc2c1)C1CCS(=O)(=O)C1 (stereo not drawn) | 4.61% |
| Cc1nc2ccc([N+](=O)[O-])cc2[nH]1 | 17.6% |
| Cc1[nH]nc2c1C(c1cccc(OC(=O)N3CCOCC3)c1)C(C#N)=C(N)O2 (stereo not drawn) | 7.11% |
| c1csc(Cc2nc(-c3ccc(-n4cccc4)cc3)no2)c1 | 7.82% |
| CC1=C(C(=O)OCC2CCCO2)C(c2coc3ccccc3c2=O)C2=C(CC(C)(C)CC2=O)N1 (stereo not drawn) | 1.42% |
| NS(=O)(=O)c1ccc(Oc2ccc(S(N)(=O)=O)cc2)cc1 | 0.505% |
| Cc1onc(-c2ccc(Cl)cc2)c1-c1ccnn1S(=O)(=O)c1ccc(Cl)cc1 | 7.92% |
| Cc1cc(NC(=O)CCn2c(=O)sc3ccccc32)no1 | 0.274% |
| c1nc2sc3c(c2c2nnnn12)CCC3 | 10.7% |
| COCc1cc(/C=N\NC(=O)c2ccc(Cl)cc2)ccc1OC | 7.06% |
| CC(=O)c1ccc(S(=O)(=O)NCc2cccnc2)cc1 | 12.2% |
| CCOC(=O)C(Cc1ccc(OC)c([N+](=O)[O-])c1)NC(=O)CCC(=O)Nc1ccc(C)cc1 (stereo not drawn) | -9.34% |
| COc1ccccc1C1Nc2ccccc2NC2=C1C(=O)CC(C)(C)C2 (stereo not drawn) | 16.4% |

| Structure (SMILES) | hERG current change (%, negative = inhibition) at 1uM |
| --- | --- |
| CCC(=O)NNC(=O)CSc1nnc(-c2ccccc2)c(-c2ccccc2)n1 | 8.46% |
| COc1ccc(N=c2sc3ccccc3n2C)cc1 | 13.1% |
| CC(N=C(NC#N)Nc1ccncc1)C(C)(C)C.O (stereo not drawn) | 6.22% |
| Cc1ccc(S(=O)(=O)N2CCN(CC(=O)Nc3ccc(N4CCOCC4)cc3)CC2)cc1C | 5% |
| CCn1ncc(Br)c1C(=O)Nc1ccc(Cl)cn1 | -6.08% |
| N#Cc1ccc(Oc2cc(C(F)(F)F)nc(-c3ccccn3)n2)cc1 | 1.1% |
| O=C(CN(CCc1ccccc1)S(=O)(=O)c1ccc(Cl)cc1)N/N=C/c1ccc2c(c1)OCO2 | -4.2% |
| CN(C)S(=O)(=O)Oc1ccc(C(=O)Nc2cccc(Cl)c2)cc1 | 6.59% |
| Cc1ccc(S(=O)(=O)Cn2nnnc2C(c2ccc(F)cc2)N2CCCCC2)cc1 (stereo not drawn) | 4.62% |
| Cc1ccc(Cl)c(NC(=O)CCl)c1Cl | -8.83% |
| Cc1ccc(/C=c2/sc3nnc(-c4ccccc4Cl)n3c2=O)o1 | 1.11% |
| O=C(OCc1ccccn1)C1CCN(C(=O)c2ccc(Cl)cc2)CC1 | 0.419% |
| N#Cc1ccc(/C=C/C(=O)O)cc1 | 18.4% |
| CC1(C)CC(NC(=S)NC2CC2)CC(C)(C)N1 | 9.45% |
| Cc1cc(C)n(-c2nc3ccccc3c(=O)n2OCC(=O)Nc2c(C)cccc2C)n1 | 10.7% |
| COc1ccc(CSc2nc(N3CCOCC3)c3c(c2C#N)CC(C)(C)OC3)cc1 | 6.49% |
| CCN1CCN(Cc2ccc(OC(F)(F)F)cc2)CC1 | 0.634% |
| COc1ccc(CCNC(=O)COc2nncc3ccccc23)cc1 | 1.36% |
| Cc1[nH]n(-c2ccccc2)c(=O)c1/C=C1\C=NN=C1c1ccccc1 | 11.3% |
| O=c1c2ccccc2nc(/C=C/c2cccc([N+](=O)[O-])c2)n1CCCO | -14.9% |
| COC(=O)C1=C(c2cc3ccccc3o2)C[C@@H]2CC[C@H]1N2C(=O)NCc1ccccc1 | -8.24% |
| CCOC(=O)c1cnn(-c2ccccc2)c1-n1cccc1 | 2.93% |
| O=C(COC(=O)c1cc2ccccc2cc1O)Nc1cccnc1Cl | 6.46% |

| Structure (SMILES) | hERG current change (%, negative = inhibition) at 1uM |
| --- | --- |
| CCc1cc2c(=O)oc(-c3ccc(F)cc3)nc2s1 | 15.2% |
| CCOC(=O)c1ccc(N2C(=O)c3n[nH]c(C)c3C2c2cccnc2)cc1 (stereo not drawn) | -0.0034% |
| O=C(NCc1ccco1)c1ccc(Cn2c(=S)[nH]c3ccccc3c2=O)cc1 | 11.6% |
| O=C(NNC(=O)C(Cl)Cl)c1cnn(-c2ccccc2)c1C(F)(F)F | 13.1% |
| Brc1c(CSc2nc3ccccc3s2)nc2ncccn12 | -46.1% |
| O=C(CSC1=NNC(c2ccccn2)S1)Nc1ccccc1 (stereo not drawn) | 4.91% |
| CCC(C)N(C(=O)c1csnn1)C(C(=O)NC(C)(C)C)c1ccccc1 (stereo not drawn) | 7.07% |
| CC1(C)CN(C(Cc2ccccc2)C(N)=O)C1=O (stereo not drawn) | 14.8% |
| Cc1c(C)c2c(OCC(=O)N3CCC(C(N)=O)CC3)cc3c(c2oc1=O)CCC(C)(C)O3 | -0.869% |
| Cc1ccc(OCC(=O)Nc2ccc(N3CCN(C(=O)c4ccco4)CC3)cc2)c(C)c1 | 10.5% |
| O=C(COC(=O)CC1CC2CCC1C2)Nc1c(F)cccc1F (stereo not drawn) | 16.1% |
| O=C(NC1CC2CCCC(C1)N2Cc1cccs1)N1CCOCC1 (stereo not drawn) | 3.19% |
| Cn1c(N)c(S(=O)(=O)N2CCN(c3cccc(Cl)c3)CC2)c(=O)n(C)c1=O | 13.4% |
| CC1(C)CC(=O)C=C(N2CCCC2)C1 | 6.84% |
| Cc1nc2ccccc2c(=O)n1/N=C/c1cn[nH]c1-c1ccccc1 | 7.97% |
| CCCc1ccc(C#N)c(SC2CC(=O)N(c3ccc(OC)cc3)C2=O)n1 (stereo not drawn) | 12.9% |
| COc1ccccc1NC(CC(=O)c1ccccc1)C(=O)OCC(=O)c1ccc(C)c(C)c1 (stereo not drawn) | -6.19% |
| O=C(Nc1ccc(N2CCN(C(=O)c3ccccc3)CC2)cc1)c1cc2ccccc2o1 | 1.57% |
| COc1ccc2c(c1OC)C(C1c3c(cc4c(c3OC)OCO4)CCN1C)OC2=O (stereo not drawn) | 7.9% |
| COc1cccc(/C=C2/Sc3ccc(C(=O)NCCN4CCCCCC4)cc3NC2=O)c1 | -11.1% |
| CCOC(=O)c1nc(Nc2ccc(OC)cc2)c2ccccc2n1 | 7.75% |
| CC(=O)Nc1ccc(S(=O)(=O)Nc2nc3ccccc3nc2-n2ccc(=NC(=O)c3ccccc3)cc2)cc1 | 14.9% |
| O=C(CSc1nnc(CNC(=O)c2ccco2)o1)Nc1ccccc1F | 5.88% |

| Structure (SMILES) | hERG current change (%, negative = inhibition) at 1uM |
| --- | --- |
| FC(F)(F)c1ccc(-n2cnc3ccccc32)nc1 | 4.89% |
| COc1cc(S(=O)(=O)N2CCCCC2)ccc1NC(=O)c1ccncc1 | -0.583% |
| COc1cc(OC)cc(-c2nnc(SCC(=O)N3c4ccccc4Sc4ccccc43)o2)c1 | 16.1% |
| CN(C)S(=O)(=O)c1ccc(C(=O)Nc2nc(-c3cc4ccccc4o3)cs2)cc1 | 11.7% |
| Cc1cc(C(=O)N/N=C/c2ccco2)n[nH]1 | 11.9% |
| COC(=O)c1c(C)noc1-c1cc(C)on1 | 13.8% |
| CCOc1ccc(CCNC(=O)COC(=O)/C=C/c2ccc(C)o2)cc1OCC | 6.47% |
| CCC1Oc2ccc(C)cc2N(CC(=O)NCCCN2CCOCC2)C1=O (stereo not drawn) | 14.8% |
| COc1ccccc1N1CCN(S(=O)(=O)c2ccc(-n3cnnn3)c(C)c2)CC1 | 10.9% |
| CC(C)Cn1c(SCC(=O)N2CCCc3ccccc32)nc2ccccc2c1=O | 5.92% |
| COc1cc(/C=N/n2nnnc2N)ccc1OC(C)=O | 13.2% |
| Cc1ccc(OCC(=O)NC(=S)Nc2cccc(C)n2)cc1 | 9.88% |
| COC(=O)/C=C/c1ccc(-n2ccnc2)cc1 | 0.824% |
| CCCCCC(=O)NNC(=O)c1ccc(F)cc1 | 16.6% |
| O=C(NC(=S)N1CCN(c2ccccc2)CC1)c1ccccc1 | 15.1% |
| Cc1sc2ncnc(SCC(=O)c3ccc(O)cc3O)c2c1C | 14.6% |
| COCCCN1C(=O)C(O)=C(C(C)=O)C1c1cccc(F)c1 (stereo not drawn) | 14.7% |
| Cc1ccccc1NC(=O)c1ccc(OCC(=O)Nc2ccccc2F)cc1 | 14.9% |
| O=C(CN1CCN(S(=O)(=O)c2ccc(Br)cc2)CC1)N/N=C/c1ccco1 | 0.215% |
| CC(C)(C)N1CC(COc2ccccc2)OC1=O (stereo not drawn) | -1.44% |
| COP(=O)(NS(=O)(=O)c1ccccc1)OC | 14.3% |
